# Test results: the antibiotic and cytotoxicity screens of Wong et al. (2023)
# This is one part of the list.
# Test system: HSkMC (human skeletal muscle cells)
# Experiment: cytotoxicity call (relative viability < 0.9)
# Settings: 10 µM
row,SMILES,cytotoxicity call
1,Cc1ccc(S(=O)(=O)N[C@H]2CC[C@@H](CC(=O)N3CCC(Cc4ccccc4)CC3)O[C@H]2CO)cc1,inactive
2,O=C(O)C1OC(Oc2cc3oc(-c4ccccc4)cc(=O)c3c(O)c2O)C(O)C(O)C1O (stereo unspecified),inactive
3,O=C(O)CN(CC(=O)O)Cc1cc2c(-c3ccccc3C(=O)O)c3cc(CN(CC(=O)O)CC(=O)O)c(=O)cc-3oc2cc1O,inactive
4,O=C1O[C@H](c2ccccc2)[C@H](c2ccccc2)N2[C@H]1[C@@H](C(=O)N1CCCCCCC1)[C@]1(C(=O)Nc3ccc(C#CC4=CCCCC4)cc31)[C@H]2c1ccccc1OCCO,inactive
5,Cc1cc(C(=O)Nc2cccc3c2O[C@@H](CN(C)S(C)(=O)=O)[C@H](C)CN([C@@H](C)CO)C3=O)n(C)n1,inactive
6,COc1ccc(OC)c(CCNC(=O)CN)c1,inactive
7,COc1ccc(S(=O)(=O)Nc2ccc3c(c2)C(=O)N([C@H](C)CO)C[C@@H](C)[C@H](CN(C)C(=O)NC(C)C)O3)cc1,inactive
8,Cc1cc(C(=O)Nc2cccc3c2O[C@H](CN(C)Cc2ccc4c(c2)OCO4)[C@@H](C)CN([C@H](C)CO)C3=O)n(C)n1,inactive
9,Cc1ccc2ccccc2n1,inactive
10,Cc1ccc(S(=O)(=O)N(C)C[C@H]2Oc3ccc(NC(=O)c4ccncc4)cc3CC(=O)N([C@H](C)CO)C[C@@H]2C)cc1,inactive
11,COc1c(OCCCN2CCOCC2)ccc2c1N=C(NC(=O)c1cnc(N)nc1)N1CCN=C21,inactive
12,O=C1CNc2cc(C(=O)O)ccc2N1,inactive
13,NNC(=O)CS(=O)(=O)c1ccc(C(F)(F)F)cn1,inactive
14,COc1ccc(S(=O)(=O)N(C)C[C@H]2Oc3ccc(NC(=O)c4ccncc4)cc3CC(=O)N([C@H](C)CO)C[C@H]2C)cc1,inactive
15,C[C@@H]1CCCCO[C@@H](CN(C)S(=O)(=O)c2ccccc2)[C@@H](C)CN([C@@H](C)CO)C(=O)c2cc(NC(=O)c3ccccc3)ccc2O1,inactive
16,Cc1noc(C)c1NC(=O)Nc1ccc2c(c1)C(=O)N([C@@H](C)CO)C[C@H](C)[C@@H](CN(C)CC1CCCCC1)OCCCC[C@H](C)O2,inactive

row,SMILES,cytotoxicity call
1,C[C@@H]1CN([C@@H](C)CO)C(=O)c2cc(NC(=O)C3CC3)ccc2O[C@@H]1CN(C)Cc1ccc(-c2ccccc2)cc1,inactive
2,COCC#Cc1cnc2c(c1)C(=O)N([C@@H](C)CO)C[C@H](C)[C@@H](CN(C)C(C)=O)O2,inactive
3,CC(C)(C)c1csc(-c2ccc(-c3cccs3)s2)n1,inactive
4,C[C@H](CO)N1C[C@H](C)[C@H](CN(C)C(=O)Cc2ccccn2)Oc2cc(-c3cccc(C(=O)N(C)C)c3)ccc2S1(=O)=O,inactive
5,C[C@@H]1CCCCO[C@H](CN(C)S(=O)(=O)c2ccc(Cl)cc2)[C@@H](C)CN([C@@H](C)CO)C(=O)c2cc(NC(=O)c3ccccc3)ccc2O1,inactive
6,Cc1cccc(NC(=O)Nc2ccc3c(c2)C(=O)N(C)[C@H]2CC[C@@H](CC(=O)NCc4ccccc4Cl)O[C@H]2CO3)c1,inactive
7,C[C@@H]1CCCCO[C@@H](CN(C)C(=O)NC2CCCCC2)[C@@H](C)CN([C@H](C)CO)C(=O)c2cc(NC(=O)Nc3ccc4c(c3)OCO4)ccc2O1,inactive
8,C[C@@H]1CN([C@H](C)CO)C(=O)Cc2cc(NC(=O)Nc3ccc(C(F)(F)F)cc3)ccc2O[C@@H]1CN(C)C(=O)Nc1ccc(F)cc1,inactive
9,C=CCN1C(=O)[C@@]2(O[C@@H](CCO)[C@H]([Si](C)(C)c3ccc(OC)cc3)[C@H]2C)c2cc(N(C=O)c3ccccc3)ccc21,active
10,CO[C@H]1CN(C)C(=O)c2ccc(NC(=O)Nc3ccccc3F)cc2OC[C@@H](C)N(Cc2ccccc2C(=O)O)C[C@@H]1C,inactive
11,COc1ccc(NC(=O)N(C)C[C@@H]2Oc3ccc(NS(=O)(=O)c4cn(C)cn4)cc3C(=O)N([C@@H](C)CO)C[C@H]2C)cc1,inactive
12,CN1CCN(C(=O)C[C@H]2C[C@@H]3c4cc(NS(=O)(=O)c5ccc(F)cc5)ccc4O[C@@H]3[C@H](CO)O2)CC1,inactive
13,C[C@@H]1CN([C@@H](C)CO)C(=O)c2cc(NS(=O)(=O)c3cn(C)cn3)ccc2O[C@@H]1CN(C)Cc1ccc(C(=O)O)cc1,inactive
14,CC(C)(C)S(=O)N1Cc2cc(C(=O)Nc3ccc(-c4ccccc4)cc3)nc(-c3cccc(-c4cccc(F)c4)c3)c2[C@@H]1CCO (stereo partly specified),active
15,C[C@@H]1CCCCO[C@@H](CN(C)S(=O)(=O)c2ccc(F)cc2)[C@@H](C)CN([C@H](C)CO)C(=O)c2cc(NC(=O)Nc3ccc(C(F)(F)F)cc3)ccc2O1,inactive
